According to PubChem BioAssay AID1508642 (National Center for Advancing Translational Sciences (NCATS), 2021):
Screen size: about 43,000 compounds; about 200 (0.47%) were called active. Not shown: some 12% with an inconclusive outcome. Calls follow the shape of the dose curve; as a rule, active = well fitted cell-killing curve with a large enough effect; inconclusive = small, poorly fitted or top-dose-only effect, or effect the other way; inactive = flat fitted curve, though single readings scatter. This is one part of the list.

Assay: Cell viability qHTS assay in S16 Pmp22-F2sN cells; also: nearly all actives have a fitted effect of over 65% in size
Conditions: S16 Pmp22-F2sN Schwann cells viability, CellTiter-Glo, 24 h; series mostly up to 57.5 µM; activity change, negative = cytotoxicity: at the top concentration
In short: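 S16 Pmp22-F2sN Schwann cells (500-1,000/well) in phenol-red-free DMEM with 10% FBS received 23 nL compound by pin tool for 24 h at 37 °C. Viability was then read as CellTiter-Glo luminescence after 15 min at room temperature.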
% is scaled to controls: 0 for no effect and ±100 for the full control effect.

| Structure (SMILES) | activity change, negative = cytotoxicity |
| --- | --- |
| CCN1CCN(C(=O)c2ccc3c(c2)N(Cc2cccc(Cl)c2)C(=O)c2ccccc2S3=O)CC1 (stereo unspecified) | inactive: -11% |
| Cc1ccc(C)c(OCCn2c(C3CC(=O)N(Cc4ccc(F)cc4)C3)nc3ccccc32)c1 (stereo unspecified) | inactive: -14.2% |
| CCN(CC)CCCNc1cc(-c2ccccc2)nc(C)n1 | inactive: -2.77% |
| O=S(=O)(c1ccc(Cl)cc1)c1nc(-c2ccccc2Br)oc1NCc1ccccc1 | inactive: -0.666% |
| CCn1c(C)c(C)c2cc(C(=O)NCCCN3CCCCC3C)ccc21 (stereo unspecified) | inactive: 0.349% |
| COc1ccc(CNC(=O)CS(=O)Cc2nc(-c3ccc(OC)c(OC)c3)oc2C)cc1 (stereo unspecified) | inactive: -0.741% |
| COc1ccc(Cn2c(=O)[nH]c3cc(C(=O)NCCC(C)C)ccc3c2=O)cc1 | inactive: 14.8% |
| Cc1ccc(N(CC(=O)Nc2cccc(Cl)c2C)S(=O)(=O)c2c(C)noc2C)cc1 | inactive: 5.09% |
| CCOc1ccc2nc(N3CCN(C(=O)c4ccc(S(=O)(=O)CC)cc4)CC3)sc2c1 | inactive: -28.4% |
| Cc1ccc(/C=C/C(=O)Nc2nc(-c3cccs3)ns2)cc1 | inactive: -1.13% |
| COc1ccc(-n2cc(C(=O)N(CCN(C)C)Cc3ccccc3)c3ccccc3c2=O)cc1 | inactive: -8.51% |
| COC(=O)c1c(SC)nc2ccccc2c1OCc1ccc(Br)cc1 | inactive: 19.1% |
| O=C(/C=C/c1ccco1)Nc1ccc(F)cc1 | inactive: 7.45% |
| CCOC(=O)C1CCCN(c2nc3c(S(=O)(=O)c4ccc(Br)cc4)nnn3c3ccsc23)C1 (stereo unspecified) | inactive: -0.4% |
| Cc1ccccc1CNC(=O)c1nn(-c2ccccc2F)nc1CO | inactive: 0.85% |
| O=c1c2sccc2n(Cc2cc(=O)n3ccccc3n2)c(=O)n1-c1cc(F)ccc1F | inactive: 1.9% |
| CCn1nc(-c2ccccc2)c(-c2ccccc2)c(C(=O)Nc2ccc(S(N)(=O)=O)cc2)c1=O | inactive: 19.2% |
| COc1ccc(C(=O)Nc2ccc(-c3nnc4n3CCCCC4)cc2)cc1 | inactive: 20.3% |
| COc1cccc2c1Oc1ncccc1N(C(=O)CCC(=O)NCCC(C)C)C2 | inactive: -0.721% |
| CCc1cccc(C)c1NC(=O)Cn1c(=O)n(-c2ccc(C)cc2)c(=O)c2c1cnn2C | inactive: 13.5% |
| COc1ccc(CCn2c(=O)c3cccnc3n(CC(=O)Nc3c(C)cccc3C)c2=O)cc1OC | inactive: -0.696% |
| O=S(=O)(c1ccc(Cl)cc1)c1nc(-c2cccc(Br)c2)oc1NCc1ccccc1 | inactive: 3.99% |
| Cc1cccc(CCNC(=O)c2ccc3c(c2)nc2n3CCC(C)C2)c1 (stereo unspecified) | inactive: 13.4% |
| COc1ccc(OC)c(NC(=O)c2ccc3c(SCC(=O)O)c4c(nc3c2)CCCC4)c1 | inactive: 0.538% |

| Structure (SMILES) | activity change, negative = cytotoxicity |
| --- | --- |
| Cc1ccc2nc(COc3ccccc3NC(=O)c3ccccc3C)cc(=O)n2c1 | inactive: 6.44% |
| COc1ccc(-c2nnc(SCC(=O)Nc3cc(OC)ccc3OC)nc2-c2ccc(OC)cc2)cc1 | inactive: -0.739% |
| COc1cccc(-c2ccc(-c3noc(-c4ccccc4Br)n3)c(OC)n2)c1 | inactive: 15.6% |
| CCC(=O)N1c2ccccc2CC1C(=O)NCc1cccc(OC)c1OC (stereo unspecified) | inactive: 18% |
| Cc1cccc(-c2noc(-c3ccc(NCc4ccco4)c([N+](=O)[O-])c3)n2)c1 | inactive: 21.2% |
| O=C(c1ccco1)N1CCN(c2nc3c(F)cc(F)cc3s2)CC1 | inactive: -10.5% |
| Cc1ccn2c(=O)cc(COc3ccc(NC(=O)COc4ccccc4)cc3)nc2c1 | inactive: 11% |
| Cc1ccc(S(=O)(=O)N2CCN(Cc3cc(Br)ccc3O)CC2)cc1 | inactive: -23.4% |
| CCC(=O)N1CCc2cc(Br)cc(S(=O)(=O)N3CCCC(C(=O)NCc4ccc(F)cc4)C3)c21 (stereo unspecified) | inactive: 13.8% |
| Cn1cc(S(=O)(=O)N2CCCCCC2)cc1C(=O)N1CCN(c2cccc(C(F)(F)F)c2)CC1 | inactive: 4.25% |
| CCOc1ccc(CCNC(=O)C2CCN(Cc3nc(-c4ccc(OC)c(OC)c4)oc3C)CC2)cc1OCC | inactive: 11.9% |
| COc1cc(-c2nc(-c3ccc4c(c3)[nH]c(=O)n4C)no2)cc(OC)c1OC | inactive: 18.8% |
| CCOc1ccccc1NC(=O)C1CCN(S(=O)(=O)c2ccc3[nH]c(=O)ccc3c2)CC1 | inactive: 8.76% |
| O=C1CSC2(C(=O)N(Cc3ccccc3)c3ccccc32)N1c1cccc(F)c1 (stereo unspecified) | inactive: -2.08% |
| CCc1ccc(NC(=O)COC(=O)CCCC2=NS(=O)(=O)c3ccccc3N2)cc1 | inactive: 0.223% |
| N#Cc1ccccc1NC(=O)C(=O)NCCc1csc(-c2ccc(C(F)(F)F)cc2)n1 | inactive: 3.14% |
| COc1cccc(CNC(=O)CCCn2ncn3c(cc4occc43)c2=O)c1OC | inactive: 7.92% |
| CCSc1ncc(Cl)c(C(=O)Nc2ccc(S(=O)(=O)Nc3ncccn3)cc2)n1 | inactive: -0.198% |
| Cc1cccc(C(=O)Nc2nc3nc(-c4ccccc4)cc(=O)n3[nH]2)c1 | inactive: -0.21% |
| CCC1CN(C(=O)NCc2ccccc2)c2cc(Cl)ccc2O1 (stereo unspecified) | inactive: -21.2% |
| O=C(Nc1cccc(OCc2cc(=O)n3ccccc3n2)c1)c1ccccc1Br | inactive: -0.309% |
| CCN(CC)c1cc(C)c2cc(NC(=O)c3ccccc3Cl)ccc2n1 | inactive: -26.5% |
| CCOC(=O)c1ccc(NC(=O)CSc2ccc(-c3ccccn3)nn2)cc1 | inactive: -20.1% |
| COc1ccc(S(=O)(=O)NCCc2nnc3ccc(SCC(=O)Nc4cc(C)cc(C)c4)nn23)cc1 | inactive: -20.7% |

| Structure (SMILES) | activity change, negative = cytotoxicity |
| --- | --- |
| CC(C)(C)OC(=O)N1CCC(c2c(C(=O)Nc3ccc4c(c3)OCCO4)cnn2-c2ccc(F)cc2F)CC1 | inactive: 1.24% |
| COc1ccc(N2CC(NC(=O)COc3ccc(F)cc3)CC2=O)cc1OC (stereo unspecified) | inactive: -1.75% |
| CCOC(=O)C(=O)NCC(c1cccnc1)N1CCN(c2ccccc2)CC1 (stereo unspecified) | inactive: -1.41% |
| CCOC(=O)CC(NC(=O)c1cc2cc(Br)cc(OC)c2oc1=O)c1ccc(OC)cc1 (stereo unspecified) | inactive: -0.527% |
| O=C(NCc1ccc2c(c1)CCN2C(=O)c1ccncc1)c1ccccc1Cl | inactive: 1% |
| Cn1c2ccccc2c2c(C(=O)N3CCN(c4cccc(Cl)c4)CC3)cn(C3CCCCC3)c(=O)c21 | inactive: 1.44% |
| Cn1c(=O)c2c(nc(CN3CCN(c4ccccc4F)CC3)n2Cc2ccccc2F)n(C)c1=O | inactive: -6.12% |
| COc1ccc(OC)c(CCNC(=O)c2cc3cccc4c3n2CC(C)S4)c1 (stereo unspecified) | inactive: -6.46% |
| COc1ccccc1CCNC(=O)C(=O)NCC(c1ccco1)S(=O)(=O)c1ccc(F)cc1 (stereo unspecified) | inactive: -8.51% |
| COc1cccc(N2CCN(C(=O)C3CCCN(S(=O)(=O)c4ccc5c(c4)oc(=O)n5C)C3)CC2)c1 (stereo unspecified) | inactive: -10.2% |
| Cn1c(=O)n(C)c2cc(N3CCOCC3)c(NC(=O)c3ccc(Cl)cc3)cc21 | inactive: 3.05% |
| CC1=C(C(=O)Nc2cc(Cl)ccc2C)C2(CCCCC2)OC1=O | inactive: 1.01% |
| O=C(NCCc1csc(-c2ccc(F)cc2)n1)c1ccco1 | inactive: -5.04% |
| Cc1cc(C)cc(NC(=O)CCc2nnc3n(C)c(=O)c4sccc4n23)c1 | inactive: 3.99% |
| Cc1cc(C)n2nc(CNC(=O)c3ccccc3Cl)nc2n1 | inactive: -4.15% |
| CCOc1ccc(CN2CCc3nc(N4CCN(c5ncccn5)CC4)ncc3C2)cc1OC | inactive: -5.95% |
| COC(=O)C1=C(C)N=C2SCCC(=O)N2C1c1ccc(OCc2ccccc2)c(OC)c1 (stereo unspecified) | inactive: 14.9% |
| CCOC(=O)c1c(C)[nH]c(C)c1S(=O)(=O)N(C)CC(=O)N1CCN(c2ccc(Cl)cc2)CC1 | inactive: 1.9% |
| CCOc1ccc(N2C(=O)CS(=O)(=O)C23C(=O)N(Cc2cccc(Cl)c2)c2ccccc23)cc1 (stereo unspecified) | inactive: -3.25% |
| CCOc1ccc(NC(=O)C2CCN(c3nc4ccccc4[nH]3)CC2)cc1 | inactive: 6.25% |
| CCSc1ccc(C(=O)Nc2ccc(-c3nc4ccc(C)cc4s3)cc2)cc1 | inactive: -21.4% |
| CCc1c(C)nc2nncn2c1Nc1ccc(Cl)cc1 | inactive: -1.89% |
| COc1ccc(-n2c(=O)c3c4c(sc3n(Cc3ccc(C)cc3C)c2=O)CCC4)c(OC)c1 | inactive: -16.1% |
| COc1cc(C(CC(=O)NCc2ccccc2)N2Cc3ccccc3C2=O)cc(OC)c1OC (stereo unspecified) | inactive: 1.4% |

| Structure (SMILES) | activity change, negative = cytotoxicity |
| --- | --- |
| CCC(C(=O)Nc1ccc(C(C)=O)cc1)n1cnc2nc3c(cc2c1=O)CCCC3 (stereo unspecified) | inactive: -5.64% |
| COc1ccc(OC)c(CNC(=O)Cn2ncc3c([nH]c4ccc(C)cc43)c2=O)c1 | inactive: 10.4% |
| CCCC(=O)Nc1ccc2nc(SCC(=O)N3CCOCC3)sc2c1 | inactive: 1.98% |
| CC(C)OCCCNC(=O)CN1C(=O)c2ccccc2Sc2ncccc21 | inactive: 10.9% |
| O=C(Nc1cccc2c1CCCC2)N1CCOc2ccc(Cl)cc21 | inactive: 4.31% |
| Cc1oc2ncnc(N3CCOCC3)c2c1C(=O)NCc1ccc(Cl)cc1 | inactive: 1.54% |
| N#C/C(=C\c1ccc(-c2cccc(Cl)c2)o1)C(=O)Nc1cccc(C(F)(F)F)c1 | inactive: -25% |
| Fc1ccc(N2CCN(c3ncnc4[nH]ncc34)CC2)cc1 | inactive: -6.1% |
| CCOC(=O)c1cc(-c2ccc(C)cc2)n(CC(=O)Nc2ccc(OC)cc2OC)c1C | inactive: 8.87% |
| Cc1ccc(NC(=O)CSc2nccn2C2CCCC2)cc1Cl | inactive: -1.39% |
| Cc1cccc(C(C)C)c1NC(=O)c1ccc2c(c1)CCCN2S(C)(=O)=O | inactive: -11.5% |
| CCCn1cc(S(=O)(=O)c2cccc(Cl)c2)c(=O)c2cc(F)c(N3CCCC3)cc21 | inactive: -23.4% |
| COc1ccc(N2CCN(C(c3ccc(F)cc3)c3sc4nc(-c5ccco5)nn4c3O)CC2)cc1 (stereo unspecified) | inactive: 2.55% |
| Cc1ccc(OCC(=O)Nc2nonc2-c2ccc(Br)cc2)cc1 | inactive: -3.17% |
| CCc1cc(=O)[nH]c(SCc2nc(-c3ccc(C(F)(F)F)cc3)no2)n1 | inactive: -1.36% |
| CCC(C)NC(=O)c1cnn(-c2cccc(F)c2)c1-n1cccc1 (stereo unspecified) | inactive: -5.29% |
| CC(=O)N1CCCC1c1nc2ccccc2n1Cc1ccccc1F (stereo unspecified) | inactive: 21.1% |
| Cc1ccc(S(=O)(=O)N(CC(=O)NCCSc2ccc(Cl)cc2)c2cccc(Cl)c2)cc1 | inactive: 2.56% |
| CCN1CCN(C(c2ccc(F)cc2)c2sc3nc(-c4ccco4)nn3c2O)CC1 (stereo unspecified) | inactive: 8.32% |
| Cc1ccc(S(=O)(=O)CCC(=O)N2CCN(c3nc4c(C)c(C)ccc4s3)CC2)cc1 | inactive: -28.4% |
| COC(=O)c1cc(C)nc2c1c(=O)nc(SCc1ccccc1Cl)n2C1CC1 | inactive: -16.3% |
| Cc1ccc(OCC(=O)Nc2ccc3nn(-c4ccc(C)cc4)nc3c2)cc1 | inactive: 5.26% |
| CCOC(=O)N1CCC2(CC1)OC(=O)C(C)=C2C(=O)NCc1ccccc1OC | inactive: 10.7% |
| Cn1cnc(S(=O)(=O)N2CCC(C(=O)Nc3ccc(Cl)c(C(F)(F)F)c3)CC2)c1 | inactive: -4.43% |
